Laboratory results as given in the supplement of paper PMC4604168 (melanoma cell lines).
This is one part of the list. Most values come without repeats; read them as rough.

Columns and labels:
Experiment in all cases: cell count relative to DMSO control; melanoma cells; higher = more viable cells
Conditions in all cases: library dose: low library concentration; 72 h
COLO792 = tested on: COLO792
COLO800 = tested on: COLO800
COLO829 = tested on: COLO829
G361 = tested on: G361
IPC-298 = tested on: IPC-298
IST-MEL1 = tested on: IST-MEL1
LB2518-MEL = tested on: LB2518-MEL
LOXIMVI = tested on: LOXIMVI
MEL-HO = tested on: MEL-HO
MZ2-MEL = tested on: MZ2-MEL
MeWo = tested on: MeWo
RPMI7951 = tested on: RPMI7951
RVH-421 = tested on: RVH-421
SkMel28 = tested on: SkMel28
SkMel2 = tested on: SkMel2
SkMel30 = tested on: SkMel30
SkMel5 = tested on: SkMel5
UACC257 = tested on: UACC257
UACC62 = tested on: UACC62
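Further: cell number obtained by counting DAPI-stained nuclei in high-throughput microscope images with image analysis software, screen run in 1,536-well plates.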

SMILES | cell count (COLO792) [%] | cell count (COLO800) [%] | cell count (COLO829) [%] | cell count (G361) [%] | cell count (IPC-298) [%] | cell count (IST-MEL1) [%] | cell count (LB2518-MEL) [%] | cell count (LOXIMVI) [%] | cell count (MEL-HO) [%] | cell count (MZ2-MEL) [%] | cell count (MeWo) [%] | cell count (RPMI7951) [%] | cell count (RVH-421) [%] | cell count (SkMel28) [%] | cell count (SkMel2) [%] | cell count (SkMel30) [%] | cell count (SkMel5) [%] | cell count (UACC257) [%] | cell count (UACC62) [%]
NC1(c2ccc(-c3nc4ccn5c(=O)[nH]nc5c4cc3-c3ccccc3)cc2)CCC1 + CCCCCCCCCCCC1=C(O)C(=O)C=C(O)C1=O [Embelin] (first compound 0.4 µM, partner dose 1.2 µM) | 79 | 76.9 | 79.4 | 87.7 | 100 | 97.3 | 97.4 | 115 | 77.4 | 96.9 | 92.2 | 104 | 91.8 | 84 | 90.9 | 90.5 | 91.1 | 81.1 | 89.7
CN(c1ncccc1CNc1nc(Nc2ccc3c(c2)CC(=O)N3)ncc1C(F)(F)F)S(C)(=O)=O + CC(C)(C)c1cnc(CSc2cnc(NC(=O)C3CCNCC3)s2)o1 [SNS-032] (first compound 0.08 µM, partner dose 0.01 µM) | 89.8 | 101 | 66.5 | 98.2 | 100 | 101 | 81.5 | 82.7 | 104 | 93 | 91.5 | 80.5 | 121 | 65 | 86.9 | 108 | 67.7 | 45.3 | 65.6
CS(=O)(=O)c1ccc(C(=O)Nc2ccc(Cl)c(-c3ccccn3)c2)c(Cl)c1 [vismodegib] + COc1ccc(-c2ccc3c(N4CCOCC4)nc(N4C[C@@H](C)O[C@@H](C)C4)nc3n2)cc1CO [KU0063794] (first compound 1 µM, partner dose 0.02 µM) | 91.7 | 90.2 | 85.3 | 93.9 | 87.5 | 91.4 | 90.2 | 80.5 | 84.7 | 96 | 105 | 107 | 88 | 92.2 | 86.3 | 109 | 98 | 89.6 | 105
NC1(c2ccc(-c3nc4ccn5c(=O)[nH]nc5c4cc3-c3ccccc3)cc2)CCC1 + O=C1NC(=O)/C(=C/c2ccc(-c3ccc(F)cc3O)o2)S1 [AS252424] (first compound 0.4 µM, partner dose 1 µM) | 68.9 | 88.1 | 89.3 | 86.3 | 95.7 | 98.8 | 77.4 | 106 | 85.1 | 96 | 85.7 | 84.8 | 76.4 | 69.9 | 82.9 | 75.3 | 110 | 67 | 70
CCCS(=O)(=O)Nc1ccc(F)c(C(=O)c2c[nH]c3ncc(Cl)cc23)c1F + Cn1cc(/C=C2\C(=O)Nc3cccnc32)c2ccccc21 [GW441756] (first compound 0.08 µM, partner dose 0.4 µM) | 104 | 91.6 | 127 | 84.4 | 99.2 | 99.4 | 108 | 119 | 73.1 | 87.8 | 92.4 | 96.6 | 81.1 | 72.2 | 98.2 | 108 | 99.1 | 91.5 | 63.4
CN(c1ncccc1CNc1nc(Nc2ccc3c(c2)CC(=O)N3)ncc1C(F)(F)F)S(C)(=O)=O + O=c1cc(-c2cccc3c2Sc2ccccc2S3)oc(N2CCOCC2)c1 [KU55933] (first compound 0.08 µM, partner dose 1 µM) | 87 | 111 | 78.4 | 89.9 | 96.6 | 95.9 | 126 | 177 | 69 | 97.3 | 98.9 | 63.5 | 106 | 84.3 | 98.1 | 107 | 81.3 | 66.5 | 74.8
CN(c1ncccc1CNc1nc(Nc2ccc3c(c2)CC(=O)N3)ncc1C(F)(F)F)S(C)(=O)=O + CCc1ccc(CCOc2ccc(CC3SC(=O)NC3=O)cc2)nc1 [pioglitazone] (first compound 0.08 µM, partner dose 2 µM) | 71.1 | 98 | 62.3 | 102 | 98.4 | 89.8 | 98.6 | 49.3 | 129 | 94.4 | 88.9 | 83.2 | 88.8 | 83 | 89.7 | 101 | 70.2 | 102 | 72.5
NC1(c2ccc(-c3nc4ccn5c(=O)[nH]nc5c4cc3-c3ccccc3)cc2)CCC1 + COc1ccc(COc2ccc(Cc3cnc(N)nc3N)cc2OC)cc1 [GW2580] (first compound 0.4 µM, partner dose 1 µM) | 62.7 | 85.4 | 106 | 94.9 | 95.2 | 84.5 | 81.9 | 55.7 | 73.8 | 95.8 | 83 | 76.7 | 93.6 | 60.3 | 78.9 | 81.6 | 83.5 | 76.6 | 71.5
CS(=O)(=O)c1ccc(C(=O)Nc2ccc(Cl)c(-c3ccccn3)c2)c(Cl)c1 [vismodegib] + C=CCn1c(=O)c2cnc(Nc3ccc(N4CCN(C)CC4)cc3)nc2n1-c1cccc(C(C)(C)O)n1 [MK1775] (first compound 1 µM, partner dose 0.02 µM) | 94.5 | 78.5 | 110 | 93.7 | 93.3 | 95.5 | 76.8 | 82.5 | 101 | 104 | 91.8 | 101 | 89.1 | 99.7 | 95.1 | 99.8 | 97.6 | 106 | 89.2
CCCS(=O)(=O)Nc1ccc(F)c(C(=O)c2c[nH]c3ncc(Cl)cc23)c1F + CC1(C)NC(=O)N(c2ccc([N+](=O)[O-])c(C(F)(F)F)c2)C1=O [nilutamide] (first compound 0.08 µM, partner dose 1 µM) | 85.5 | 114 | 96.6 | 96.3 | 99.3 | 97.9 | 104 | 83.4 | 88.7 | 92.6 | 109 | 110 | 67.3 | 83.4 | 97.3 | 99.5 | 109 | 106 | 54.3
CS(=O)(=O)c1ccc(C(=O)Nc2ccc(Cl)c(-c3ccccn3)c2)c(Cl)c1 [vismodegib] + Oc1nc(-c2ccc(C(F)(F)F)cc2)nc2c1CSCC2 [XAV939] (first compound 1 µM, partner dose 2 µM) | 80 | 99.4 | 105 | 94.8 | 95.8 | 97.2 | 95 | 81.5 | 96.6 | 97.4 | 95.4 | 87.3 | 98.8 | 73.1 | 97.1 | 110 | 78.8 | 77 | 84.7
C=C(c1ccc(C(=O)O)cc1)c1cc2c(cc1C)C(C)(C)CCC2(C)C [Bexarotene] + Cc1ccc(NC(=O)c2cccc(N(C)C)c2)cc1NC(=O)c1ccc(O)cc1 [ZM336372] (first compound 2 µM, partner dose 2 µM) | 90.1 | 136 | 95.7 | 72.5 | 81.8 | 88.3 | 92 | 173 | 76.9 | 77.6 | 91.9 | 77.7 | 68.9 | 71 | 100 | 89.7 | 78.9 | 84.4 | 94.2
C=C(c1ccc(C(=O)O)cc1)c1cc2c(cc1C)C(C)(C)CCC2(C)C [Bexarotene] + Cc1cc(N2CCOCC2)cc2[nH]c(-c3c(NC[C@@H](O)c4cccc(Cl)c4)cc[nH]c3=O)nc12 [BMS536924] (first compound 2 µM, partner dose 0.2 µM) | 88.7 | 61.9 | 88 | 76.7 | 92 | 87.1 | 90.2 | 188 | 85.6 | 96.1 | 94.7 | 79.9 | 107 | 78.5 | 80.1 | 97.8 | 82 | 83.8 | 102
CCCS(=O)(=O)Nc1ccc(F)c(C(=O)c2c[nH]c3ncc(Cl)cc23)c1F + OCCn1cc(-c2cnc3nnn(Cc4ccc5ncccc5c4)c3n2)cn1 [PF04217903] (first compound 0.08 µM, partner dose 1 µM) | 104 | 101 | 107 | 90.5 | 106 | 99.5 | 103 | 87 | 90.1 | 99 | 107 | 118 | 75.1 | 87.9 | 99.8 | 94.4 | 114 | 98.1 | 73.5
C=C(c1ccc(C(=O)O)cc1)c1cc2c(cc1C)C(C)(C)CCC2(C)C [Bexarotene] + O=c1cc(-c2cccc3c2Sc2ccccc2S3)oc(N2CCOCC2)c1 [KU55933] (first compound 2 µM, partner dose 1 µM) | 105 | 143 | 102 | 103 | 108 | 101 | 131 | 110 | 114 | 109 | 95.4 | 88.6 | 112 | 78.2 | 97 | 105 | 83.4 | 117 | 88.8
NC1(c2ccc(-c3nc4ccn5c(=O)[nH]nc5c4cc3-c3ccccc3)cc2)CCC1 + Cc1ccc(NC(=O)c2cccc(N(C)C)c2)cc1NC(=O)c1ccc(O)cc1 [ZM336372] (first compound 0.4 µM, partner dose 2 µM) | 82.2 | 92.7 | 100 | 106 | 80.4 | 93.6 | 80.6 | 144 | 79.4 | 71.2 | 101 | 82.9 | 96.7 | 52.4 | 98.5 | 78 | 94.5 | 95.6 | 84.8
CN(c1ncccc1CNc1nc(Nc2ccc3c(c2)CC(=O)N3)ncc1C(F)(F)F)S(C)(=O)=O + OCCn1cc(-c2cnc3nnn(Cc4ccc5ncccc5c4)c3n2)cn1 [PF04217903] (first compound 0.08 µM, partner dose 1 µM) | 72.9 | 109 | 77.6 | 72.5 | 98.9 | 97.5 | 84.8 | 104 | 91.4 | 87.3 | 95.8 | 46.8 | 122 | 94.9 | 94.6 | 88 | 84.5 | 61.3 | 85.8
NC1(c2ccc(-c3nc4ccn5c(=O)[nH]nc5c4cc3-c3ccccc3)cc2)CCC1 + O=S(=O)(c1ccccc1)N(CC(F)(F)F)c1ccc(C(O)(C(F)(F)F)C(F)(F)F)cc1 [T0901317] (first compound 0.4 µM, partner dose 1.4 µM) | 79.4 | 56 | 109 | 89.1 | 90.7 | 88.5 | 94.6 | 93.4 | 92.5 | 84.8 | 75.8 | 104 | 98.5 | 73.2 | 89.7 | 71.3 | 95.6 | 73.5 | 72.1
